# Screen size: about 340,000 compounds; about 12,000 (3.5%) were called active. The shares of active, inactive and inconclusive entries below differ from those in the screen. Calls follow the shape of the dose curve; as a rule, active = well fitted inhibition curve with a large enough effect; inconclusive = small, poorly fitted or top-dose-only effect, or another doubt; inactive = no such curve, though single readings can be large or run the other way. Potencies of inconclusive entries are left out as doubtful fits.
# Test: qHTS Assay for Inhibitors of Hepatitis C Virus (HCV)
# Conditions: Huh7.5.1 HCVcc-Cre (HCVcc is cell-culture hepatitis C virus) infection, luciferase reporter, 44 h; activity change, negative = inhibition: at 41.8 µM (top of the series) unless noted
# In short: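 1,000 cells/well; 4 h culture; + compound; + HCVcc-Cre (~0.5 moi); 44 h; luciferase substrate, RT 15 min; read 15 sec.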
# % is scaled to controls: 0 for no effect and ±100 for the full control effect; potency is read from the fitted curve at half-maximal effect; tags tell the direction and shape of the fitted curve.
SMILES,"activity change, negative = inhibition",Potency
Cc1cccc(-n2ncc3c(NCCCO)ncnc32)c1,inactive: -9.65%,–
Cc1ccc(C(=O)Nc2ccc(C(=O)N/N=C/c3c[nH]c4ccccc34)cc2)cc1,–,"inconclusive [inhibitor, partial curve]"
CC(C)c1ccc(N(C(=O)c2snc(C(N)=O)c2N)C(C(=O)NC2CCCC2)c2ccncc2)cc1 (stereo unspecified),–,"inconclusive [inhibitor, single point]"
CCOC(=O)c1c(-c2ccccc2)csc1NC(=O)c1nn(CC)cc1Br,–,"inconclusive [inhibitor, full curve]"
COc1ccc(-c2cc(C)no2)cc1S(=O)(=O)N1CCN(c2ccccc2F)CC1,–,active: 7.08 µM
Cc1c(C(=O)Nc2ccc3c4c(cccc24)CC3)cccc1[N+](=O)[O-],–,"inconclusive [inhibitor, partial curve, poor fit]"
O=C(NCc1ccccc1)C1CCCN(S(=O)(=O)c2ccc(Br)cc2)C1 (stereo unspecified),inactive: -10.1%,–
CCCC(=O)c1cc(CP(=O)(OCC)OCC)oc1C,inactive: 6.53%,–
CCOc1ccc(C(=O)OCC(=O)Nc2nc(OC)cc(OC)n2)cc1OCC,–,"inconclusive [inhibitor, partial curve]"
CC(O)CNCc1ccc(-c2ccccc2)cc1 (stereo unspecified),–,"inconclusive [inhibitor, full curve]"
Nc1nc(O)c(N=Nc2ccc(S(N)(=O)=O)cc2)c(=O)[nH]1,inactive: 1.63%,–
Cc1cccc(OCCCC(=O)Nc2ccc(Br)cc2)c1,–,"inconclusive [inhibitor, full curve, poor fit]"
C[C@H](CO)N1C[C@H](C)[C@@H](CN(C)S(=O)(=O)c2ccccc2)Oc2ccc(NC(=O)C3CCCCC3)cc2C1=O,–,"inconclusive [inhibitor, single point]"
CCCCOC(=O)c1ccc(N=Nc2c(C)c(C#N)c(O)[nH]c2=O)cc1,inactive: 4.71%,–
COc1ccc(-c2cccc(NS(=O)(=O)c3ccc([N+](=O)[O-])cc3)c2)nn1,–,"inconclusive [inhibitor, single point]"
Cc1nn(C)cc1CNC(=O)Nc1ccc(Br)cc1Cl,–,"inconclusive [inhibitor, partial curve, poor fit]"
O=C(Nc1cn(-c2ccccc2)nc1-c1ccccc1)c1ccccc1,–,"inconclusive [inhibitor, partial curve]"
Cc1ccc(Nc2cc(C)nn2-c2nc(C)cc(C)n2)cc1,–,"inconclusive [inhibitor, partial curve]"
O=C(CSc1nnc(CNC(=O)c2ccco2)o1)Nc1cccc(F)c1,inactive: 3.53%,–
CCOc1cc(CNc2ccccc2)cc(Br)c1OCC(=O)NC(C)(C)C,–,active: 12.6 µM
COC(=O)C1=C(c2cccc(OCc3ccccc3)c2)C[C@@H]2CC[C@H]1N2C(=O)NCc1ccc(F)cc1,–,"inconclusive [inhibitor, single point]"
C=CCOc1c(OC)cc(/C=N/Nc2cccc(C(=O)O)c2)c(Br)c1Br,inactive: 36.3%,–
CC(C)N(Cc1nc(-c2ccc(Cl)cc2)no1)C(=O)CCC1CCCC1,–,"inconclusive [inhibitor, single point]"
Cc1ccc2c(C)c(C(=O)Nc3ccc(S(=O)(=O)Nc4onc(C)c4C)cc3)oc2c1,–,active: 0.501 µM

SMILES,"activity change, negative = inhibition",Potency
C=CC(COCc1ccccc1)N([C@@H](Cc1ccccc1)C(=O)OC)S(=O)(=O)c1ccccc1Br (stereo partly specified),–,"inconclusive [inhibitor, single point]"
CCOc1ccccc1N1CCN(C(=O)c2cc(-c3cc(OC)ccc3OC)nc3ccccc23)CC1,–,"inconclusive [inhibitor, partial curve]"
COc1ccc(C2CC(=O)c3c(C)nc(N4CCN(Cc5ccccc5)CC4)nc3C2)cc1OC (stereo unspecified),–,active: 3.55 µM
O=C(CN1CCN(S(=O)(=O)c2cccc(Br)c2)CC1)N1CCCCC1,inactive: -7.7%,–
Cc1cc(Cl)n2c(nc3cc(F)c(F)cc32)c1C#N,–,"inconclusive [inhibitor, single point]"
Cc1ccc(Cl)c(NC(=O)COC(=O)c2ccccc2C(=O)c2ccc(Cl)c([N+](=O)[O-])c2)c1Cl,–,"inconclusive [inhibitor, partial curve]"
COc1cc(CNc2ncnc3c2[nH]c2ccc(C)cc23)cc(OC)c1,–,"inconclusive [inhibitor, partial curve, poor fit]"
O=C(c1cc(-c2ccco2)nc2ccccc12)N1CCN(c2ccc(F)cc2)CC1,–,"inconclusive [inhibitor, partial curve, poor fit]"
O=C1C=C(N2CCOCC2)C2(CCCCC2)O1,inactive: -13.2%,–
c1ccc2c(c1)CCN(c1nc(CN3CCOCC3)nc3sc4c(c13)CCCC4)C2,–,"inconclusive [inhibitor, single point]"
COc1cc([N+](=O)[O-])c2ncsc2c1,inactive: 1.79%,–
Nc1cc([N+](=O)[O-])cc2oc(-c3ccccc3)cc12,–,active: 10 µM
Cc1nc(SCC(=O)Nc2ccc(F)cc2)c2oc3ccccc3c2n1,inactive: -8.7%,–
COc1ccc(C(C)=O)cc1CN(C)C,inactive: 16.9%,–
COCCNC(=O)/C(C#N)=C/c1ccc(SC)cc1,inactive: -6.34%,–
CC(C)CC1Nc2ncnc(N3CCN(c4ccccc4)CC3)c2N(Cc2ccc(Cl)cc2)C1=O (stereo unspecified),inactive: -28.9%,–
COc1cccc(/C=N/Nc2ccc(S(=O)(=O)O)cc2)c1O,inactive: 2.15%,–
COc1ccc(S(=O)(=O)N2CCC(C(=O)Nc3cccc(C(C)=O)c3)CC2)cc1,inactive: -2.86%,–
OC(COc1ccc(Cl)cc1)CN1C2=NCCCN2c2ccccc21 (stereo unspecified),–,active: 12.6 µM
COC(=O)NC(NS(=O)(=O)c1ccccc1)(C(=O)OC)C(F)(F)F (stereo unspecified),inactive: 12.9%,–
Cc1ccc(-c2nnn(CC(=O)N(CC3CCCO3)C(C(=O)NC(C)(C)C)c3ccc(F)cc3)n2)o1 (stereo unspecified),–,inactive
S=C(NCCc1ccccc1)Nc1cccc2cnccc12,–,"inconclusive [inhibitor, partial curve]"
O=C(O)c1ccc(/C=N/Nc2cccc(C(F)(F)F)c2)cc1,inactive: 6.25%,–
CN(C)c1ccc(C=C2C(=O)NC(=S)NC2=O)cc1,–,"inconclusive [inhibitor, single point]"

SMILES,"activity change, negative = inhibition",Potency
CN(CC(=O)Nc1cccc(F)c1)C(=O)c1cccc(S(=O)(=O)N2CCN(c3ccc(F)cc3)CC2)c1,–,"inconclusive [inhibitor, single point]"
CC/C(=N/N=C(/CC)c1ccc(O)cc1)c1ccc(O)cc1,–,"inconclusive [inhibitor, single point]"
COCCCN(C(=O)C1CCC1)c1c(N)n(Cc2ccccc2)c(=O)[nH]c1=O,inactive: -4.07%,–
COc1ccccc1CN1CC(C(=O)N(Cc2cnn(C)c2)C(C)C)CCC1=O (stereo unspecified),–,"inconclusive [inhibitor, single point]"
COc1cc([N+](=O)[O-])ccc1NC(=O)Cn1ccsc1=N,–,"inconclusive [inhibitor, partial curve]"
O=C(CSc1ccc(-c2ccccn2)nn1)Nc1ccc(F)cc1F,inactive: -6.7%,–
O=C(Cc1ccc2c(c1)OCCO2)N1CCN(S(=O)(=O)c2ccccc2C(F)(F)F)CC1,–,"inconclusive [inhibitor, partial curve]"
O=C(NCCN1CCN(Cc2ccccc2)CC1)Nc1cc(Cl)cc(Cl)c1,–,"inconclusive [inhibitor, single point]"
CCOC(=O)c1[nH]c2ccc(OC)cc2c1NC(=O)CN1CCc2ccccc2C1,–,"inconclusive [inhibitor, single point]"
CC(C)(C)N1C(=O)[C@H]2[C@@H](c3ccc(Br)cc3)N3C(=O)N(c4cccc(Br)c4)C(=O)[C@@]3(Cc3ccccc3)[C@H]2C1=O,inactive: -10%,–
CC1CCCCN1S(=O)(=O)c1ccc2c(c1)CCN2C(=O)C1CCC1 (stereo unspecified),–,"inconclusive [inhibitor, single point]"
COc1ccc(-c2c(C)nn3c(N)c(C#N)cnc23)cc1OC,–,"inconclusive [inhibitor, full curve, poor fit]"
Cc1ccc2nc(COc3ccc(N(C)S(=O)(=O)c4ccccc4)cc3)cc(=O)n2c1,–,"inconclusive [inhibitor, single point]"
O=C1CCCC/C1=C/NCc1ccccc1,inactive: 14.2%,–
O=C(/C=C/c1ccc(OCCCF)cc1)NCc1cccc(Cl)c1,–,"inconclusive [inhibitor, single point]"
COc1ccc(N=c2cc(-c3ccc(O)cc3)oc3ccccc23)cc1,–,"inconclusive [inhibitor, partial curve]"
Cc1cc(C)n(CC(=O)N/N=C/c2ccc3c(c2)OCO3)n1,inactive: -1.05%,–
Cc1ccc(NC(=O)c2nc(S(=O)(=O)Cc3ccccc3C)ncc2Cl)cc1C,–,"inconclusive [inhibitor, single point]"
CCOC(=O)C1C(=O)C=C(c2ccc(C)cc2)CC1c1ccco1 (stereo unspecified),–,"inconclusive [inhibitor, single point]"
Cc1c([N+](=O)[O-])cc(C(=O)Nc2ccc3ncccc3c2)cc1[N+](=O)[O-],–,"inconclusive [inhibitor, partial curve, poor fit]"
[O-]/[N+](=N\Nc1ccc(Cl)cc1)c1ccccc1,inconclusive: -35% [inhibitor],–
CN1CCCC(CN2c3ccccc3Sc3ccccc32)C1 (stereo unspecified),–,"inconclusive [inhibitor, single point]"
Cc1ccc(NC(=O)CN(C)CC(=O)Nc2ccccc2-c2ccccc2)cc1,–,"inconclusive [inhibitor, single point]"
